Data on 45 compounds can be found in the supplement of paper PMC4723716.

Molecules are shown by their SMILES. ± gives the uncertainty stated by the source. The full ranking holds about 9,900 compounds; the median of “viability index relative to DMSO control” is about 1, and the lowest 2% start at about 0.85. The list shows a part of the results.

This experiment deals with Plasmodium falciparum NF54 stage V gametocytes. Nature of the experiment: viability index relative to DMSO control (fraction); higher = less gametocyte killing. Particulars: 2.5 µM, library set: Broad Institute DOS, incubation time: 72 h. The essentials: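 P. falciparum NF54 stage V gametocytes in serum-free screening medium (0.75% gametocytemia, 1.25% hematocrit, 10 µl) were incubated with compound at 2.5 µM in 1,536-well plates for 72 hr at 37°C under low oxygen. Then 3 µl of 2.5 µM MitoTracker Red CMXRos plus 0.13% saponin was added for one to two hours. One field per well was imaged, 20–70 µm2 red particles were counted, and the viability index was the count divided by the plate mean of DMSO wells.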
Consider `O=C(C[C@@H]1C[C@@H]2c3cc(NC(=O)C4CCC4)ccc3O[C@@H]2[C@@H](CO)O1)NC1CCCC1`, for which the viability index stood at 1.08 ± 0.011.
`CO[C@@H]1CN(C)C(=O)c2cc(NC(=O)NC3CCCCC3)ccc2OC[C@@H](C)N(CC2CCOCC2)C[C@@H]1C` returned a viability index of 1.056 ± 0.0027.
The result for `O=C1N[C@H](Cc2ccccc2)COCc2cn(nn2)CC[C@@H]1Cc1cccc(F)c1` reads 0.98 ± 0.097; that for `CO[C@H]1CC[C@H]2CCOc3ccc(C#N)cc3C(=O)N(C)[C@@H](C)C(=O)N(C)C[C@H]1O2`, 1.087 ± 0.0079; that for `CN1CCN(C(=O)C[C@@H]2C[C@H]3c4cc(NS(C)(=O)=O)ccc4O[C@H]3[C@@H](CO)O2)CC1`, 0.964 ± 0.023.
The result for `COc1ccccc1C#Cc1ccc([C@H]2[C@H](C#N)N(C(=O)C3CCC3)[C@H]2CO)cc1` reads 1.02 ± 0.025; that for `O=C(C1CCOCC1)N1CC(=O)N2[C@@H](CO)[C@H](c3ccc(-c4cccnc4)cc3)[C@@H]2C1`, 0.988 ± 0.069.
The result for `Cc1noc(C)c1S(=O)(=O)Nc1ccc2c(c1)C(=O)N([C@@H](C)CO)C[C@H](C)[C@H](CN(C)Cc1ccc(C(=O)O)cc1)OCCCC[C@@H](C)O2` reads 1.1 ± 0.018; that for `COc1ccc(-c2cn(CC[C@@H]3CC[C@@H](NC(=O)c4cnccn4)[C@@H](CO)O3)nn2)cc1`, 1.18 ± 0.013.
Consider `CC(C)NC(=O)N(C)C[C@H]1Oc2c(NS(=O)(=O)c3cccs3)cccc2C(=O)N([C@H](C)CO)C[C@H]1C`, for which the viability index amounted to 0.999 ± 0.042.
The value for `C[C@@H]1CN([C@H](C)CO)C(=O)c2cc(N(C)C)ccc2O[C@@H](C)CCCCO[C@H]1CN(C)Cc1ccc(C(=O)O)cc1` was 1.13 ± 0.074.
The value for `CO[C@@H]1CN(C)C(=O)c2cc(NC(C)=O)ccc2OC[C@@H](C)N(Cc2ccncc2)C[C@@H]1C` was 0.985 ± 0.088; that for `O=C(C[C@@H]1CC[C@@H](NC(=O)C2CC2)[C@H](CO)O1)Nc1ccccc1` was 0.897 ± 0.16.
The value for `O=C(c1ccccc1F)N1C[C@H]2[C@@H](c3ccccc31)[C@@H](CO)N2Cc1ccc2c(c1)OCO2` was 1.07 ± 0.057; that for `O=C(NC[C@@H]1[C@H](c2ccccc2)[C@H](CO)N1C(=O)C1CCC1)NC1CCCC1` was 1.02 ± 0.031.
In the case of `CCCNC(=O)N(C)C[C@@H]1Oc2cc(C#C[C@@H](C)O)ccc2S(=O)(=O)N([C@@H](C)CO)C[C@@H]1C`, the viability index was determined as 0.965 ± 0.067.
The result for `C[C@@H]1CN([C@@H](C)CO)C(=O)c2ccccc2-c2ccccc2CO[C@@H]1CN(C)C(=O)CCC(F)(F)F` reads 1.04 ± 0.052; that for `O=C(C1CC1)N1C[C@H]2[C@@H](c3ccccc31)[C@H](CO)N2C(=O)c1ccccc1`, 1.01 ± 0.066; that for `CO[C@H](CN(C)Cc1ccc2c(c1)OCO2)[C@@H](C)CN(C(=O)Nc1ccc(F)cc1)[C@H](C)CO`, 1.07 ± 0.022.
The result for `O=C(C[C@H]1CC[C@@H](NC(=O)c2ccc(F)cc2)[C@@H](CO)O1)NCCc1ccccc1` reads 1.14 ± 0.051; that for `O=C(c1cc2c(c(-c3cccc(-c4ccc(F)cc4)c3)n1)[C@@H](CCO)N(C(=O)c1ccc3c(c1)OCO3)C2)N1CCOCC1`, 1.04 ± 0.011; that for `C[C@H]1CCCCO[C@H](CN(C)C(=O)c2ccncc2)[C@@H](C)CN([C@@H](C)CO)C(=O)c2cc(NS(=O)(=O)c3cccs3)ccc2O1`, 1.15 ± 0.11.
The result for `CCCC(=O)Nc1ccc2c(c1)C(=O)N(C)[C@@H]1CC[C@H](CC(=O)N3CCCCC3)O[C@@H]1CO2` reads 1.1 ± 0.03.
`CCS(=O)(=O)NCC[C@H]1CC[C@H](NC(=O)Nc2cc(Cl)cc(Cl)c2)[C@H](CO)O1` had a viability index of 1.08 ± 0.037.
The value for `COc1ccc2c3c([nH]c2c1)[C@@H](CO)N(Cc1ccc(Cl)cc1)C[C@]31CN(C1)S(C)(=O)=O` was 0.931 ± 0.095; that for `COc1ccc(S(=O)(=O)Nc2ccc3c(c2)C(=O)N([C@@H](C)CO)C[C@H](C)[C@H](CN(C)S(=O)(=O)c2ccc(Cl)cc2)OCCCC[C@@H](C)O3)cc1` was 0.953 ± 0.064; that for `CCCNC(=O)N1[C@H](CO)[C@H](c2ccccc2C2=CCCCC2)[C@@H]1C#N` was 1.157 ± 0.0063.
The value for `Fc1cccc(CN2C[C@@H]3N[C@H](C2)[C@H]3c2ccc(/C=C/c3ccccc3)cc2)c1` was 0.99 ± 0.017.
The value for `CCS(=O)(=O)N1CC2(C1)[C@@H](c1ccccc1)[C@@H](CO)N2C(=O)c1ccccc1` was 1.13 ± 0.066.
As to `CC[C@@H]1C/C=C/C[C@@H](C)Oc2ccccc2C(=O)N(C)[C@@H](C)C(=O)N1.CC[C@@H]1C/C=C\C[C@@H](C)Oc2ccccc2C(=O)N(C)[C@@H](C)C(=O)N1`, the viability index is 1.025 ± 0.0088.
Compound `COc1ccc(NC(=O)N2CC(=O)N3[C@@H](CO)[C@@H](c4ccc(Br)cc4)[C@@H]3C2)cc1` displayed a viability index of 1.01 ± 0.11.
The result for `C[C@@H]1CN([C@@H](C)CO)C(=O)c2c(c3ccccc3n2C)-c2ccccc2CO[C@H]1CN(C)C` reads 1.07 ± 0.06; that for `COCCNC(=O)C[C@H]1CC[C@H]2[C@@H](COc3ccc(NS(=O)(=O)c4ccc(Cl)cc4)cc3C(=O)N2C)O1`, 1.07 ± 0.098; that for `Cc1ccc(S(=O)(=O)Nc2ccc3c(c2)C(=O)N(C)[C@@H]2CC[C@@H](CC(=O)NCCc4ccncc4)O[C@H]2CO3)cc1`, 0.862 ± 0.073.
The result for `O=C(C[C@H]1CC[C@@H]2[C@H](COC[C@H](O)CN2S(=O)(=O)c2ccc(F)cc2)O1)NCCN1CCCCC1` reads 0.9656 ± 0.002.
The value for `CCS(=O)(=O)N1CC[C@@]2(CC1)CN([C@@H](CO)c1[nH]c3cc(OC)ccc3c21)S(=O)(=O)c1ccc(C)cc1` was 0.934 ± 0.052.
In the case of `CNC[C@@H]1OCc2cn(nn2)CCCC(=O)N([C@H](C)CO)C[C@H]1C`, the viability index turned out to be 1.033 ± 0.0092.
The value for `CCCNC(=O)N1C[C@@H]2N[C@H](C1)[C@@H]2c1ccc(-c2cccc(F)c2)cc1` was 1.11 ± 0.034.
The value for `Cc1ccc(S(=O)(=O)N[C@H]2CC[C@H](CC(=O)NCc3ccncn3)O[C@@H]2CO)cc1` was 1 ± 0.078; that for `O=C(c1ccccn1)N1[C@@H](CO)[C@@H](c2ccccc2)C12CN(Cc1ccccc1F)C2` was 1.05 ± 0.038.
The value for `CS(=O)(=O)N1[C@H](C#N)[C@@H](c2ccccc2-c2ccccc2F)[C@H]1CO` was 1.09 ± 0.064; that for `O=C(c1ccccc1F)N1CC(=O)N2[C@H](CO)[C@@H](c3ccc(C#Cc4ccccc4)cc3)[C@H]2C1` was 0.9724 ± 0.00054; that for `CCN(C[C@H]1[C@@H](c2ccccc2)[C@@H](CO)N1C(=O)COC)S(C)(=O)=O` was 1.04 ± 0.028.
With `C[C@@H]1CCCCO[C@H](CN(C)C(=O)Cc2ccccc2)[C@@H](C)CN([C@H](C)CO)C(=O)c2cc(NS(C)(=O)=O)ccc2O1`, the viability index is 1.118 ± 0.0086.
The result for `CCS(=O)(=O)Nc1ccc2c(c1)C(=O)N(C)C[C@@H](OC)[C@@H](C)CN(C(=O)c1ccc3c(c1)OCO3)[C@@H](C)CO2` reads 1.09 ± 0.067.
